In PubChem BioAssay AID1508623 (National Center for Advancing Translational Sciences (NCATS), 2021):
Among all 48,000 compounds or so, about 450 (0.94%) were called active. Inconclusive means that the source gave no clear call. Such entries were picked first, then a sample of the others. Calls follow the shape of the dose curve; as a rule, active = well fitted inhibition curve with a large enough effect; inconclusive = small, poorly fitted or top-dose-only effect; inactive = no such curve, though single readings can be large or run the other way. Potencies beside an inconclusive call are fits to weak or partial responses and may not hold up.

experiment: Primary qHTS for Identification of Small Molecule Inhibitors of Huntingtin Promoter Activity; conditions: HEK293 HTT promoter firefly luciferase reporter (activity 0% = vehicle and -100% = no light), 24 h; activity change, negative = inhibition: at 57.5 µM (top of the series); also: nearly all actives have a fitted effect of over 50% in size
Procedure, shortened: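 HEK293 cells carrying firefly luciferase reporters were seeded at 2,500 per well in Opti-MEM and cultured for 24 h. They were then treated with compounds at up to 57.5 uM final for 24 h at 37 degrees C before Dual-Glo luminescence readout.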
Potency is read from the fitted curve at half-maximal effect; tags tell the direction and shape of the fitted curve.

Potency, active:
COc1ccc(NC(=O)CSc2nc(-c3ccco3)cc(C(F)(F)F)n2)cc1OC 2.24 µM

Potency, inconclusive:
COc1cccc(CNC(=O)c2ccc3nc(-c4ccc(F)cc4)c(-c4ccc(F)cc4)nc3c2)c1 12.6 µM [inhibitor, partial curve, poor fit], CC(C)CN(C[C@@H](O)[C@H](Cc1ccccc1)NC(=O)O[C@H]1CO[C@H]2OCC[C@H]21)S(=O)(=O)c1ccc(N)cc1 24.3 µM [inhibitor, partial curve, poor fit], Cc1cccc(CNS(=O)(=O)c2ccc(-c3cnc(C4CC4)o3)cc2)c1 25.1 µM [inhibitor, partial curve, poor fit], CCOC(=O)c1c(C)oc2ccc(N(C(=O)c3ccncc3)S(=O)(=O)c3ccc(CC)cc3)cc12 25.1 µM [inhibitor, single point], Cc1ccc(S(=O)(=O)N2CC=C(c3c(C)n(CC(=O)N4CCCC4)c4ccccc34)CC2)cc1C 25.1 µM [inhibitor, partial curve, poor fit], Cc1sc(-n2cccc2)c(C(C)NC(=O)Nc2cccc(C(F)(F)F)c2)c1C (stereo unspecified) 25.1 µM [inhibitor, single point], COc1cccc2c1C(=O)c1c(O)c3c(c(O)c1C2=O)C[C@@](O)(C(C)=O)C[C@H]3O[C@H]1C[C@H](N)[C@H](O)[C@H](C)O1 0.611 µM [inhibitor, full curve], CCS(=O)(=O)N1CCc2cc(C(=O)Nc3ccc(Br)cc3F)ccc21 35.5 µM [inhibitor, single point], CCc1cccc(C)c1NC(=O)c1ccc2c(c1)CCN2S(=O)(=O)c1ccc(Cl)cc1 22.4 µM [inhibitor, partial curve], COC(=O)c1cc(NC(=O)c2cc3c(-c4ccccc4F)nn(C)c3s2)cc(C(=O)OC)c1 28.2 µM [inhibitor, single point], Cc1cccc(N2CCN(S(=O)(=O)c3ccc(-c4cnc(C5CC5)o4)cc3)CC2)c1C 2.82 µM [inhibitor, partial curve], CCOC(=O)c1cccc(NC(=O)C(C)n2nc(C)c3c(C)n(-c4ccccc4)nc3c2=O)c1 (stereo unspecified) 39.8 µM [inhibitor, partial curve, poor fit], CCOc1ccc(N(C)S(=O)(=O)c2ccc3c(c2)CCCN3C(C)=O)cc1 39.8 µM [inhibitor, single point], CCOc1cc(C(=O)NCCc2sc(-c3ccc(F)cc3)nc2C)cc(OCC)c1OCC 39.8 µM [inhibitor, partial curve, poor fit], Cc1ccccc1NC(=O)Cn1cc(C(=O)c2cccs2)c2ccccc21 28.2 µM [inhibitor, single point], CCc1ccc(NC(=O)CSC2=Nc3ccccc3C3=NC(CCC(=O)NCc4ccccc4)C(=O)N23)cc1 (stereo unspecified) 39.8 µM [inhibitor, single point], O=C(Cn1ccc2cc(S(=O)(=O)N3CCCCC3)ccc21)NCCc1ccccc1Cl 25.1 µM [inhibitor, single point], CCCCC(=O)OC1=C(C(=O)c2ccccc2)N(CCC)S(=O)(=O)c2ccccc21 39.8 µM [inhibitor, single point], CCNc1nc(NCc2ccc(F)cc2)c2cnn(C)c2n1 39.8 µM [inhibitor, partial curve, poor fit], COc1ccc(CC(=O)Nc2sc3c(c2C(=O)Nc2ccccc2)CCCCC3)cc1 11.2 µM [inhibitor, partial curve, poor fit], O=C(Nc1ccc(F)cc1)c1csc2c1CCCCC2 39.8 µM [inhibitor, single point], O=C(NCCc1ccccc1)c1nc(-c2ccc(Cl)cc2)n2c1CCCCC2 3.98 µM [inhibitor, partial curve, poor fit], COc1ccc(S(=O)(=O)c2cnc3ccc(Cl)cc3c2N2CCCCC2C)cc1 (stereo unspecified) 39.8 µM [inhibitor, single point], CCOc1ccc(N(CC)S(=O)(=O)c2cc(Br)cc3c2N(C(C)=O)C(C)C3)cc1 (stereo unspecified) 5.62 µM [inhibitor, full curve], CCOc1ccccc1CN1CCN(S(=O)(=O)c2ccccc2)CC1 35.5 µM [inhibitor, single point], CCOC(=O)c1c(-c2ccccc2)oc2ccc(NS(=O)(=O)c3cc(C)c(C)cc3C)cc12 0.178 µM [inhibitor, partial curve, poor fit], O=C(CN1N=C(c2ccc(Cl)cc2)CCC1=O)NCCc1ccc(Cl)cc1 25.1 µM [inhibitor, single point], CC(=O)c1cccc(NC(=O)c2oc3c(c2C)-c2nn(Cc4ccc(Cl)cc4)cc2CC3)c1 22.4 µM [inhibitor, partial curve], COc1ccc(OC)c(CNC(=O)c2ccc(Sc3ccc(C)cc3)c(N)c2)c1 25.1 µM [inhibitor, partial curve], COc1ccc(NC(=O)c2oc3ccc(S(=O)(=O)N4CCCCC4)cc3c2C)cc1 25.1 µM [inhibitor, partial curve, poor fit], Clc1ccc(Nc2nnc(Cc3ccncc3)c3ccccc23)cc1 34.3 µM [inhibitor, partial curve, poor fit], COC(=O)c1ccc2c(C(=Nc3ccc(N(C)C(=O)CN4CCN(C)CC4)cc3)c3ccccc3)c(O)[nH]c2c1 15.3 µM [inhibitor, partial curve], CC(=O)N1CCc2c(sc(NC(=O)CSc3ccccc3)c2-c2nc3ccccc3s2)C1 25.1 µM [inhibitor, single point], Cc1c(C(=O)NCc2cccc(Cl)c2)sc2ncnc(N(C)C3CCCCC3)c12 39.8 µM [inhibitor, single point], Cc1nn(CCC(=O)Nc2cc(F)ccc2F)c(=O)c2nn(-c3ccccc3)c(C)c12 28.2 µM [inhibitor, partial curve, poor fit], COc1cc(Nc2nc(SCC(=O)c3ccc(Br)cc3)nc3ccccc23)cc(OC)c1 25.1 µM [inhibitor, single point], CC(C)OCCCNC(=O)c1ccc(CSc2nc3cccnc3n2Cc2ccccc2)cc1 20 µM [inhibitor, single point], CCC1=C(c2ccc(C)cc2)S(=O)(=O)N=C1N1CCC(C(=O)Nc2ccccc2F)CC1 28.2 µM [inhibitor, partial curve, poor fit], Cc1nc2sccn2c(=O)c1S(=O)(=O)Nc1ccc(N2CCOCC2)c(Cl)c1 15.8 µM [inhibitor, partial curve], COc1ccc(CNC(=O)CCCN2C(=O)CSc3c2c(C)nn3-c2ccccc2)cc1 39.8 µM [inhibitor, single point], Cc1ccccc1OCc1ccc(-c2nc(C#N)c(NCc3cccnc3)o2)o1 28.2 µM [inhibitor, partial curve], CCc1ccc(CNC(=O)c2c(C)oc3ncnc(N4CCOCC4)c23)cc1 35.5 µM [inhibitor, single point], Cc1cccc(N2CCN(CCNC(=O)Nc3ccc(Cl)cc3)CC2)c1C 20 µM [inhibitor, partial curve, poor fit], CCOc1ccccc1-n1nnc(-c2nsc(NC(=O)c3ccc(C)cc3)n2)c1C 39.8 µM [inhibitor, single point], CSc1cccc(Nc2cc(C(=O)NCCCN(C)c3ccccc3)c3ccccc3n2)c1 31.6 µM [inhibitor, single point]

Activity change, negative = inhibition, inactive:
CC(=O)c1cccc(NC(=O)c2nc3ccccc3n(C)c2=O)c1 -15.7%, CC(=O)c1cccc(NC(=O)CN2C=NS(=O)(=O)c3ccc(C)cc32)c1 8.55%, COc1ccc(OC)c(S(=O)(=O)Nc2ccc3c(c2)n(C)c(=O)n3C)c1 0%, Cc1cc2c(F)c(Oc3ncnn4cc(OC[C@@H](C)O)c(C)c34)ccc2[nH]1 -22.3%, COCCOCC(OC)OC 2.83%, COc1ccc(N(Cc2cccs2)C(=O)c2ccco2)cc1 -25.8%, Cc1cc(C)c(NC(=O)CN(C)S(=O)(=O)c2ccc3c(c2)CCC(=O)N3)c(C)c1 -5.92%, Cc1nc2n(c(=O)c1CCN1CCC(C(=O)c3ccc(F)cc3)CC1)CCS2 -14.3%, CN(Cc1ccccc1)S(=O)(=O)c1nnc(NC(=O)c2cccc(Cl)c2)s1 -9.11%, CCOc1ccc(CCNC(=O)c2cc3c(=O)oc4ccc(C)cc4c3s2)cc1OCC -5.86%, N#C/C(=C\c1ccc(-c2ccc(C(=O)O)cc2)o1)C(=O)Nc1ccccc1C(=O)O -5.62%, CCCOc1cccc(C(=O)Nc2cccc3cccnc23)c1 -0.505%, Cc1cc(CN2CCN(c3ccccc3F)CC2)cs1 -11.5%, CN(C/C=C/C#CC(C)(C)C)Cc1cccc2ccccc12 2.83%, COc1cc(NC(=O)c2cccc3c2C(=O)N(C2CCCCC2)C3)cc(OC)c1OC -28.9%
